Laboratory results: PubChem BioAssay AID624417 (National Center for Advancing Translational Sciences (NCATS), 2012)
Among all 410,000 compounds or so, about 6,400 (1.6%) were called active. This list was built around the results that the source calls inconclusive (neither active nor inactive); the mix of calls is not that of the screen. Calls follow the shape of the dose curve; as a rule, active = well fitted inhibition curve with a large enough effect; inconclusive = small, poorly fitted or top-dose-only effect; inactive = no such curve, though single readings can be large or run the other way. Potencies of inconclusive entries are left out as doubtful fits.

target: Glucagon-like peptide 1 receptor (Homo sapiens) (UniProt P43220); assay: qHTS of GLP-1 Receptor Inverse Agonists (Inhibition Mode); details: HEK293 GLP-1R CRE-luciferase, luminescence, 24 h, GLP-1R form is constitutively active; activity change, negative = inhibition: at 38.3 µM (top of the series) unless noted; also: nearly all actives have a fitted effect of over 55% in size
Chain of UniProt P43220 (P43220 whole entry, looked up): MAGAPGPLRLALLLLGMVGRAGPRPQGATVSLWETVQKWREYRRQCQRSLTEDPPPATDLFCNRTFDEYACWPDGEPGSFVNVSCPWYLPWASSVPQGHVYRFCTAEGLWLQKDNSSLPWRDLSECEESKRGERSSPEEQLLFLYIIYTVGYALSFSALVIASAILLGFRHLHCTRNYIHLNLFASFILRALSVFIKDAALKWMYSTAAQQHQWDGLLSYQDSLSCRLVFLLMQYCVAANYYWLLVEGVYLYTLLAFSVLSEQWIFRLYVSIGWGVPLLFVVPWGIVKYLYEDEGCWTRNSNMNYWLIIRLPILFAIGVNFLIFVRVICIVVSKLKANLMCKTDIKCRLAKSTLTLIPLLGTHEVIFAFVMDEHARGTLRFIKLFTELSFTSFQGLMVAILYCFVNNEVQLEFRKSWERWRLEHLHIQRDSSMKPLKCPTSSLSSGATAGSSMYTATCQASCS
Procedure, shortened: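 Readout was luciferase luminescence, measured 12 min after detection reagent at room temperature. Beforehand, GLP-1R reporter HEK293 cells had sat 12 h, then received compounds for 24 hr at 37 deg C.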
% is scaled to controls: 0 for no effect and ±100 for the full control effect; potency is read from the fitted curve at half-maximal effect; tags tell the direction and shape of the fitted curve.

SMILES | Potency | activity change, negative = inhibition
COc1ccc(N2CCN(C(=O)c3cc(-c4cc(OC)ccc4OC)nc4ccccc34)CC2)cc1 | inconclusive [inhibitor, partial curve, poor fit] | 
CCn1c(/C=C/c2ccccc2)nc2ccccc2c1=O | inconclusive [inhibitor, single point] | 
COc1cc(C(=O)Nc2nc3ccc(S(C)(=O)=O)cc3s2)cc(OC)c1C |  | inactive: -5.25%
CC(OC(=O)c1cc(S(=O)(=O)Nc2ccc(F)cc2)ccc1Cl)C(=O)Nc1ccc2c(c1)OCCO2 (centres undefined) | inconclusive [inhibitor, single point] | 
CN1OC[C@@H]2CN[C@H](c3cccc(-c4cc(Cl)cc(Cl)c4)c3)C[C@@H]21 | inconclusive [inhibitor, single point] | 
CCCCCOC(=O)c1ccc(OC(=O)c2cncc(Br)c2)cc1 |  | inactive: 8.39%
O=C(NCCc1c[nH]c2ccccc12)C(=O)NCC(c1cccnc1)N1CCN(c2ccccc2)CC1 (centres undefined) | inconclusive [inhibitor, single point] | 
CCOC(=O)C(C)c1ccc2cc(OC)ccc2c1 (centres undefined) | inconclusive [inhibitor, single point] | 
C/C(=N\NC(=O)c1ccc2c(c1)OCO2)c1ccco1 | inconclusive [inhibitor, partial curve, poor fit] | 
O=C1N=C(N2CCCC2C(=O)O)S/C1=C\c1ccco1 (centres undefined) | inconclusive [inhibitor, single point] | 
CCOc1ccccc1N(C)C(=O)Cn1ncc2c([nH]c3ccccc32)c1=O | inconclusive [inhibitor, partial curve, poor fit] | 
CCOC(=O)C1CCCN(CC(=O)/C=C2/N(C)c3ccccc3C2(C)C)C1 (centres undefined) | inconclusive [inhibitor, partial curve, poor fit] | 
CCOc1ccc2nc(SCc3ccccc3C#N)sc2c1 | inconclusive [inhibitor, single point] | 
Fc1ccc(NC(=S)NNc2ncc(C(F)(F)F)cc2Cl)c(F)c1 | inconclusive [inhibitor, single point] | 
CCn1c(=O)c(C(=O)Nc2ccc(C(C)=O)cc2)nc2ccccc21 |  | inactive: 5.55%
CN1CC(=O)N(CC(=O)Nc2ccc(Cl)c(C(F)(F)F)c2)C1=O | inconclusive [inhibitor, single point] | 
Cc1cc(NCCN2CCOCC2)c2ccc3ccccc3c2n1 | inconclusive [inhibitor, partial curve, poor fit] | 
COc1cc(CN2CCN(c3cccc(C)c3C)CC2)cc([N+](=O)[O-])c1O | inconclusive [inhibitor, partial curve] | 
COc1ccc(OCCN2CCC(C(=O)NC(c3ccccc3)c3ccc4ccccc4n3)CC2)cc1 (centres undefined) | inconclusive [inhibitor, partial curve, poor fit] | 
Cc1ccc(SCc2ccc(C(=O)Nc3cccc([N+](=O)[O-])c3C)cc2)cc1 | inconclusive [inhibitor, single point] | 

SMILES | Potency | activity change, negative = inhibition
CC1CC(C)CN(S(=O)(=O)CC23CCC(CC2=O)C3(C)C)C1 (centres undefined) | inconclusive [inhibitor, single point] | 
COc1ccccc1NCC(O)COc1ccc(C(C)(C)C)cc1 (centres undefined) | inconclusive [inhibitor, partial curve, poor fit] | 
CCN(CC)CCNC(=O)c1ccc2c(c1)NC(=O)c1ccccc1S2 | inconclusive [inhibitor, single point] | 
C/C(=N\Nc1ccc(Cl)nn1)c1ccccc1O | inconclusive [inhibitor, full curve, poor fit] | 
COc1cc(/C=N/N(C)c2ccccc2)ccc1O | inconclusive [inhibitor, single point] | 
OCC1(Cc2cccc(Cl)c2)CCCN(Cc2cnn(-c3ccccc3)c2)C1 (centres undefined) | inconclusive [inhibitor, partial curve, poor fit] | 
N#CC(C#N)=C1C=CC=CN1/C(=C\c1ccccc1Cl)C(=O)c1ccccc1 | inconclusive [inhibitor, partial curve, poor fit] | 
CS(=O)(=O)N(CC(=O)Nc1cccc(Br)c1)Cc1ccccc1 | inconclusive [inhibitor, single point] | 
Clc1ccc(-c2noc(CN3CCN(c4ccccc4)CC3)n2)cc1 |  | inactive: -32.5%
CCC(CC)c1nnc(NC(=O)c2cccc(S(=O)(=O)N3CCOCC3)c2)s1 | inconclusive [inhibitor, single point] | 
CCN(CC(=O)Nc1cccc(F)c1)Cc1nc2ccccc2c(=O)[nH]1 | inconclusive [inhibitor, partial curve, poor fit] | 
C[C@]1(C(=O)NCc2cc(F)cc(C(F)(F)F)c2)C=C[C@@H](Cc2ccccc2)N1C(=O)c1ccccc1 | inconclusive [inhibitor, partial curve, poor fit] | 
COC(=O)c1ccc(NC(=S)NC2CCc3ccccc32)cc1 (centres undefined) | active: 10 µM | 
O=C(CCn1cccc1)NCCc1ccc(Cl)cc1 | inconclusive [inhibitor, single point] | 
CCOC(=O)C1=C(Cn2cnc3ccccc32)NC(=O)NC1c1cc(C)ccc1C (centres undefined) | inconclusive [inhibitor, single point] | 
COc1ccc(/C=N/NC(=O)c2ccncc2)cc1CN1CCN(c2ccc(F)cc2)CC1 |  | inactive: -10.1% [at 0.307 µM]
Cc1cc(C)cc(OCc2nnc(SCC(=O)N3CCN(c4ccccc4)CC3)o2)c1 | inconclusive [inhibitor, partial curve, poor fit] | 
Cc1c(C)c2c(OCC(=O)N3CCC(C(N)=O)CC3)cc3c(c2oc1=O)CCC(C)(C)O3 |  | inactive: 33.9%
CCCOCCOC(=O)c1[nH]c2c(c1C)C(=O)CC(c1cc(OC)ccc1OC)C2 (centres undefined) | inconclusive [inhibitor, full curve] | 
